# Laboratory results published in PubChem BioAssay AID686978 (National Center for Advancing Translational Sciences (NCATS), 2013).
# The campaign covered roughly 420,000 compounds. About 64,000 (15%) were called active. Inconclusive means that the source gave no clear call. Such entries were picked first, then a sample of the others. Calls follow the shape of the dose curve; as a rule, active = well fitted inhibition curve with a large enough effect; inconclusive = small, poorly fitted or top-dose-only effect; inactive = flat fitted curve, though single readings scatter. Potencies of inconclusive entries are left out as doubtful fits.
# Assay: qHTS for Inhibitors of human tyrosyl-DNA phosphodiesterase 1 (TDP1): qHTS in cells in absence of CPT; also: nearly all actives have a fitted effect of over 55% in size
# Conditions: DT40 Tdp1-/- hTDP1 cells, no CPT, ATP luminescence, 48 h; activity change, negative = growth inhibition: at 46.2 µM (top of the series) unless noted
# Procedure, shortened: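 Cells were dispensed at 400 per well, compounds added by pin tool, plates incubated ≥48 hr at 37 °C, then CellTiter-Glo added for 30 min at room temperature before luminescence reading. Line: DT40 Tdp1-/- complemented with hTDP1; camptothecin omitted.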
# % is scaled to controls: 0 for no effect and ±100 for the full control effect; potency is read from the fitted curve at half-maximal effect; tags tell the direction and shape of the fitted curve.
SMILES,"activity change, negative = growth inhibition",Potency
COCc1cc(C)[nH]c(=O)c1C#N,inactive: -3.78%,–
CN(CC1CCCN(CCc2ccc(F)cc2)C1)C(=O)CCC(N)=O (centres undefined),inactive: -16.1%,–
S=C(NCCc1ccccc1)NCC1CCCO1 (centres undefined),–,active: 23.1 µM
COc1ccc(NC(=O)N2CCCC3(CCN(C(=O)c4cc(C(F)(F)F)cc(C(F)(F)F)c4)CC3)C2)cc1,inactive: -11.1%,–
O=C(c1cccs1)n1nc(-c2ccccc2)nc1NCc1ccco1,–,"inconclusive [inhibitor, single point]"
COCCn1c(Cc2ccccc2)nnc1SCC(=O)N1CCCC1=O,inactive: 15.8%,–
Nc1nc(SCC(=O)N2CCCc3ccccc32)n(-c2ccccc2)n1,inactive: -18.8%,–
COc1ccc(NC(=S)Nc2ccccc2)cc1,–,"inconclusive [inhibitor, single point]"
CCc1ccc2oc(C(=O)NCc3ccccc3)cc(=O)c2c1,–,"inconclusive [inhibitor, single point]"
COc1ccccc1CN(C)C[C@H]1OCc2cnnn2CCCC(=O)N([C@H](C)CO)C[C@@H]1C,inactive: -14%,–
OC(c1ccccc1)(c1ccc(F)cc1)C(c1ccccc1)N1CCOCC1 (centres undefined),–,active: 18.4 µM
Cc1cc(C)cc(NC(=O)C[n+]2ccccc2)c1,inactive: -22.4%,–
O=C(COc1ccc(Cl)cc1)Nc1ccc(N2CCN(C(=O)c3ccco3)CC2)cc1,–,active: 13 µM
CC1(C)Cc2nc3oc4c(NCc5ccccc5)ncnc4c3cc2CO1,–,"inconclusive [inhibitor, partial curve]"
O=C(CSCc1c(Cl)cccc1Cl)Nc1ccc2c(c1)OCCO2,–,"inconclusive [inhibitor, partial curve, poor fit]"
CC(C)(C)C(=O)Nc1nnc(SCC(=O)Nc2nccs2)s1,inactive: 1.9%,–
CCOCC(=O)Nc1ccc2c(c1)N(S(=O)(=O)c1cccs1)CCC2,–,"inconclusive [inhibitor, single point]"
CC(NC(=O)COc1ccccc1)C(=O)N1CCN(c2ccc(F)cc2)CC1 (centres undefined),–,"inconclusive [inhibitor, single point]"
O=C(Nc1ccc2nc(-c3ccccc3)[nH]c2c1)c1cccs1,–,active: 13 µM
COC(=O)c1cc(OC)c(OC)cc1NC(=O)c1ccc(OC)cc1,–,"inconclusive [inhibitor, partial curve, poor fit]"

SMILES,"activity change, negative = growth inhibition",Potency
Cc1c(OCC(=O)NCc2cccnc2)ccc2c3c(c(=O)oc12)CCCC3,inactive: 5.79%,–
Cc1nn(C)c(C)c1S(=O)(=O)N1CCC(C(=O)NCC2COc3ccccc3O2)CC1 (centres undefined),inactive: -5.51%,–
C=C1C(=O)OC2C1CCC(C)=C1C(=O)C3OC3(C)C12 (centres undefined),–,active: 0.184 µM
COc1ccccc1NC(=S)N1CCCC1,inconclusive: -30.3% [inhibitor],–
COc1ccc(C(C)=NNS(=O)(=O)c2ccc(C)cc2)cc1OC,inconclusive: -31.9% [inhibitor],–
Cc1ccc(NC(=O)Cn2c(-c3nonc3N)nc3ccccc32)c(Br)c1,–,"inconclusive [inhibitor, partial curve, poor fit]"
CCc1cc(C(=O)Cc2ccccn2)c(O)cc1O,inactive: -9.84%,–
CC(=O)c1ccccc1C(=O)N1CCC(n2nccc2NC(=O)C2CC2)CC1,inactive: -2.27%,–
Cc1ccccc1NC(=O)CSc1nnc(NC(=O)c2ccco2)s1,inconclusive: -31.5% [inhibitor],–
Fc1cccc(Cl)c1CNCc1ccccc1Cl,–,"inconclusive [inhibitor, partial curve]"
O=C(COC(=O)CNC(=O)c1cc(Cl)cc([N+](=O)[O-])c1)NC(=O)NCc1ccco1,inactive: -13.4%,–
CCCCOc1ccc(C2C(=O)N(C3CCCCC3)CC(=O)N2CCCC)cc1 (centres undefined),–,"inconclusive [inhibitor, single point]"
CCOc1ccc(N(CC(=O)Nc2ccc(OC)cc2OC)S(=O)(=O)c2c(C)[nH]c(=O)[nH]c2=O)cc1,inactive: 26%,–
O=C(NCC1CCCO1)c1cc(-c2ccccc2)nc2ccccc12 (centres undefined),inconclusive: -30.9% [inhibitor],–
COc1ccc(CNC(=O)COC(=O)c2cnccn2)cc1,inactive: 19.7%,–
COc1ccccc1CN(Cc1cc2cc(C)cc(C)c2[nH]c1=O)Cc1nnnn1CC1CCCO1 (centres undefined),–,active: 23.1 µM
CCCC(=O)NC(C)c1nc2ccccc2n1C (centres undefined),inactive: -4.83%,–
COc1cc(NS(=O)(=O)c2ccc(C)cc2C)cc(OC)c1OC,–,active: 6.51 µM
COc1ccc(C2NC(=O)c3ccccc3N2)c(OC)c1OC (centres undefined),–,"inconclusive [inhibitor, single point]"
